# Screen size: about 310,000 compounds; about 14,000 (4.5%) showed an effect of 50% or more. Effects have a minus sign here. This is one part of the list.
# Biological target: human ether-à-go-go-related gene (hERG) potassium channel (human, UniProt Q12809)
# Experiment: primary screen, population patch clamp on CHO cells stably expressing hERG
# 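Further: peak tail current of the secondary pulse compared with the same well before compound.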
# Sequence of human ether-à-go-go-related gene (hERG) potassium channel (Q12809 whole entry, looked up): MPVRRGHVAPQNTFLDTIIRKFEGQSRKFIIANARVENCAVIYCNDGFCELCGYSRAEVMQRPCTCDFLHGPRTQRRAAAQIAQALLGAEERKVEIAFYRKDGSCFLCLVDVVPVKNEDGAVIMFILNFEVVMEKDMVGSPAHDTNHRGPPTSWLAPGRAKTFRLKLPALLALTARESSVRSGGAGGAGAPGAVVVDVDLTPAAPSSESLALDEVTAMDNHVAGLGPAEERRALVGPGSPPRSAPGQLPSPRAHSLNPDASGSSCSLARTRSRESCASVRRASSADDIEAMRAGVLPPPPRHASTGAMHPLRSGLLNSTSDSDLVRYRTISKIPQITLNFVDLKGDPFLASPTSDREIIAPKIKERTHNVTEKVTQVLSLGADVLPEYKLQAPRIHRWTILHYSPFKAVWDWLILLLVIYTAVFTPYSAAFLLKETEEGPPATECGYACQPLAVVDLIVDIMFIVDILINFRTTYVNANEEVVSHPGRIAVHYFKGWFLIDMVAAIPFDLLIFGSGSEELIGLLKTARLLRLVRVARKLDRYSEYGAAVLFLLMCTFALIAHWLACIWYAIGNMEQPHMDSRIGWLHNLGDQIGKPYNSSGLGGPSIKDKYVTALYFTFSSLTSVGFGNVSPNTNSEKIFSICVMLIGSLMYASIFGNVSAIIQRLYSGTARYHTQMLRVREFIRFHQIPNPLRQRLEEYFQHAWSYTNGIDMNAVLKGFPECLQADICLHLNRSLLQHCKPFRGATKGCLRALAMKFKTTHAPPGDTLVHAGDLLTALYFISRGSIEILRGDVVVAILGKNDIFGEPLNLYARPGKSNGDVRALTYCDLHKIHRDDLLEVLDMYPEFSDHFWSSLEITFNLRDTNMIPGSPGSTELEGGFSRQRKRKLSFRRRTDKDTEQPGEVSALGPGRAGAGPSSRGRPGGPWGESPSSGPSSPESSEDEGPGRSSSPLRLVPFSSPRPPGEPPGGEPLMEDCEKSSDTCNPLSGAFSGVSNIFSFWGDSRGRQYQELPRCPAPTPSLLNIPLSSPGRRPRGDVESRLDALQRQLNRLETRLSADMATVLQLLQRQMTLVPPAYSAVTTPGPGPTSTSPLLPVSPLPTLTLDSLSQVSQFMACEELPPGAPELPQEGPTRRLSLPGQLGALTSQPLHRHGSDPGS
row,SMILES,"hERG current change (%, negative = inhibition) at 10uM [%]"
1,Cc1ccc(C2=NS(=O)(=O)N(C)C(C(=O)NCc3cccs3)=C2)cc1,-8.57
2,C/C=C/C(=O)Nc1nnc(C2CCCCC2)s1,3.93
3,Cc1ccc(NC(=O)CN(C)CC(=O)Nc2ccc(N3CCOCC3)cc2)c([N+](=O)[O-])c1,-0.559
4,CCOC(=O)C1=C(C)N=c2s/c(=C/c3ccco3)c(=O)n2C1c1cccc(OC)c1 (centres unmarked),6.27
5,CCN1CCN(C(CNS(=O)(=O)c2ccccc2)c2ccccc2)CC1 (centres unmarked),-34.8
6,CCCCSc1nc(O)cc(=O)n1CC,1.65
7,O=C(Nc1c(F)cccc1F)c1cnc(N2CCN(c3ccccn3)CC2)c2ccccc12,-4.56
8,CN(C)CCOC(=O)COc1ccc(Cl)cc1.Cl,-3.97
9,C/C(=N\NC(=O)c1nnn(-c2nonc2N)c1C)c1ccc(OCc2ccccc2)cc1,15.2
10,CC(=O)Nc1nc(-c2ccc3c(c2)OCO3)cs1,3.99
11,O=C(Cn1cnc2c(nnn2Cc2ccc(Cl)cc2)c1=O)OCc1ccccc1,2.23
12,COc1cccc(CNC(=O)c2cnc(-c3ccccn3)nc2C(F)(F)F)c1,-0.948
13,O=C(Nc1ccc(N2CCN(C(=O)c3cccs3)CC2)cc1)c1ccco1,17.7
14,O=C(N/N=C/c1cccnc1)C1CCCCC1,30.3
15,Cc1ccc(NC(=O)C2(N3CCC3=O)CCCCC2)cc1,6.92
16,O=C(CSc1ccccc1)N1CCN(C(=O)c2ccco2)CC1,-10.1
17,CCOC(=O)N1CCC(NC(=O)CC2C(=O)NCCN2Cc2cccc(F)c2F)CC1 (centres unmarked),-19.3
18,O=S(=O)(NCc1ccccc1)c1cccc2cccnc12,-8.15
19,Cc1cccc(C)c1NC(=O)C(C)N1CCCCC1 (centres unmarked),9.05
20,COc1ccc(NC(=O)c2cc([N+](=O)[O-])ccc2N2CCNCC2)cc1,-44.5
21,CC1(C)NC(C)(C)/C(=C\c2cccs2)C(=O)C1=O,26.6
22,CCN(CC)S(=O)(=O)c1ccc(N2CCOCC2)c(NC(=O)Cc2ccccc2F)c1,-27.1

row,SMILES,"hERG current change (%, negative = inhibition) at 10uM [%]"
1,CC(=O)C1=C(O)C(=O)N(C)C1c1ccccc1[N+](=O)[O-] (centres unmarked),14.1
2,C=C1C(=O)O[C@@H]2[C@H]3O[C@]3(C)CC/C=C(\C)CC[C@@H]12,15.8
3,Cc1occc1C(=O)Nc1nnc(C(F)(F)F)s1,8.77
4,C/C(CC(=O)Nc1cc(Cl)ccc1Cl)=N\NC(N)=S,-6.37
5,COc1ccc(C)cc1-n1c(SCC(=O)NC2CC2)nc2ccccc2c1=O,-17.4
6,O=P(CCCO)(Cc1ccccc1)Cc1ccccc1,16.7
7,COc1ccc(OC)c(Nc2nc(-c3sc(NC(=O)C(C)(C)C)nc3C)cs2)c1,12.5
8,CC(=O)N1[C@@H]2CC3C4CC=C5C[C@@H](O)CC[C@]5(C)C4CC[C@]3(C)[C@@]21C(C)=O (some centres unmarked),9.98
9,CSc1cc(-c2ccc(Cl)cc2)c(C(=O)NN)s1,-9.98
10,CCCn1nnnc1SCC(=O)N1CCCc2ccccc21,9.32
11,NS(=O)(=O)c1ccc(NC(=O)Nc2ccc3c(c2)OCO3)cc1,-1.4
12,COc1cc(CN2CCC(CCC(=O)NC3CC3)CC2)cc(Cl)c1OC,-55.4
13,CC(C)n1c(=O)c(C=Nc2cccc([N+](=O)[O-])c2)c(O)n(CCc2ccccc2)c1=O,-0.91
14,CN(Cc1nc2ccccc2c(=O)[nH]1)C(=O)c1cc(C2CC2)nn1-c1ccccc1,-34.1
15,CCOc1ccccc1CNC(=O)CCCn1ncn2c(cc3occc32)c1=O,-11.2
16,Cc1csc(NC(=O)C(C)N2C(=O)c3ccccc3S2(=O)=O)n1 (centres unmarked),-8.08
17,CN(C)/C=C(/C(=O)c1ccc(Cl)c(Cl)c1)S(C)(=O)=O,13.4
18,Cc1cc(C)c(C)c(S(=O)(=O)NCc2cccnc2)c1C,-7.93
19,Cc1ccccc1C(=O)NC(CC(C)C)C(=O)N1CCN(c2ccccc2)CC1 (centres unmarked),-11.1
20,O=C(NNC(=S)NC1CCCCC1)c1ccc2c(c1)OCO2,13.3
21,CC/S(C)=N/S(=O)(=O)c1ccc(C)cc1 (centres unmarked),7.95
22,Cc1nnc(SCc2nnc(-c3cccs3)o2)n1Cc1ccccc1,4.17
